Measured values as given in PubChem BioAssay AID588855 (National Center for Advancing Translational Sciences (NCATS), 2011).
About 5,000 (1.2%) of roughly 410,000 compounds were called active. The inconclusive results got no clear call from the source; some entries with a clear call stand among them for comparison. Calls follow the shape of the dose curve; as a rule, active = well fitted inhibition curve with a large enough effect; inconclusive = small, poorly fitted or top-dose-only effect; inactive = no such curve, though single readings can be large or run the other way. Potencies of inconclusive entries are doubtful fits and often do not repeat.

Assay: qHTS for Inhibitors of TGF-b; also: nearly all actives have a fitted effect of over 65% in size
Settings: HepG2 CAGA-GFP TGF-b/SMAD3 reporter, GFP fluorescence, 18 h, TGF-beta stimulated, 500 pg/mL final; series mostly up to 46.1 µM; activity, negative = inhibition: at the top concentration
Procedure, shortened: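 HEPG2 CAGA-GFP cells (1000/well, DMEM with 1% FBS) were pre-incubated 2 h at 37 degrees C, given compound by pin tool, then stimulated with TGF-beta at 500 pg/mL final for 18 h before per-cell GFP fluorescence imaging.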
% is scaled to controls: 0 for no effect and ±100 for the full control effect; potency is read from the fitted curve at half-maximal effect; tags tell the direction and shape of the fitted curve.

Compound | activity, negative = inhibition | Potency
COc1ccc(S(=O)(=O)NC(C)C(=O)NCc2cccnc2)cc1C (stereo unspecified) | inactive: -4.35% | 
Clc1ccc2c(N/N=C/c3cccc(Br)c3)ccnc2c1 | inactive: -47.4% | 
O=C(NC1CCCC1)C1CCCN(S(=O)(=O)c2cnc[nH]2)C1 (stereo unspecified) | inactive: -0.393% | 
CCOC(=O)c1cnn(-c2ncnc3c2oc2ccccc23)c1N |  | inconclusive: 11.2 µM [inhibitor, single point]
COc1ccc(NC(=S)NC2CCCC2)c(OC)c1 |  | inconclusive: 35.5 µM [inhibitor, single point]
Cc1ccc(Cn2c(C(=O)O)c(CNCCc3cccs3)c3ccc(C)cc32)cc1 |  | inconclusive: 3.16 µM [inhibitor, single point]
CCN(C(=O)CSc1nc2ccccc2nc1Cc1cccc(OC)c1)c1cccc(C)c1 |  | active: 15.8 µM
CCOC(=O)C1CCCN(C(=O)Cc2ccc(OC)c(OC)c2)CC1 (stereo unspecified) | inactive: -6.38% | 
Cc1ccc(NC(=O)Nc2nc3c(s2)CCCCCC3)cc1C | inactive: 2.24% | 
Cc1cccc2c(=O)cc(C(F)(F)F)[nH]c12 |  | inconclusive: 10 µM [inhibitor, single point]
CCCCOc1ccc(C(=O)NCCS(=O)(=O)N2CCN(c3ccccc3OC)CC2)cc1 |  | inconclusive: 20 µM [inhibitor, partial curve, poor fit]
CC(c1ccccc1C(O)(c1ccccc1)c1ccccc1)N(C)C (stereo unspecified) |  | inconclusive: 22.4 µM [inhibitor, single point]
Cc1ccc(Nc2nc(N)nc(CN3CCN(Cc4ccccc4)CC3)n2)cc1Cl |  | inconclusive: 22.4 µM [inhibitor, single point]
CC(C)CC(=O)NC(Nc1ccc([N+](=O)[O-])cc1)C(Cl)(Cl)Cl (stereo unspecified) |  | active: 15.8 µM
Cc1ccc2c(c1)[C@@H]1CN(C)CC[C@@H]1N2S(=O)(=O)c1ccc([N+](=O)[O-])cc1 | inactive: -8.91% | 
CN1CCN(CCCNC(=O)c2ccc(/C=C3\Oc4ccccc4N(Cc4ccc(Cl)cc4)C3=O)cc2)CC1 |  | inconclusive: 22.4 µM [inhibitor, single point]
CN(C)c1ccc(C(CNC(=O)c2ccccc2Cl)N2CCc3ccccc32)cc1 (stereo unspecified) | inactive: -8.64% | 
COc1cc(C2C3=C(COC3=O)Oc3cc4c(cc32)OCO4)cc(OC)c1OC(C)=O (stereo unspecified) |  | inconclusive: 2.51 µM [inhibitor, full curve]
CCOC(=O)N1CCC(NC(=O)CN(c2ccc(C(C)C)cc2)S(=O)(=O)c2c(C)nn(C)c2C)CC1 | inactive: 8.64% | 
O=S(=O)(Nc1nccs1)c1cc(Cl)ccc1Cl |  | inconclusive: 35.5 µM [inhibitor, single point]
C/C(=C\C(=O)c1ccc(Cl)cc1)NCc1ccc2c(c1)OCO2 |  | inconclusive: 35.5 µM [inhibitor, single point]
